# In the supplement of paper PMC11417369:
# ± gives the standard deviation of the averaged measurements. The list shows a part of the results.
# System: PfAP2-EXP AP2 domain (GST-tagged)
# Assay: gcPBM binding intensity (ln(normalized median fluorescence intensity)); higher = stronger DNA binding
# Method in brief: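 In this array assay, P. falciparum DNA-binding domains with a GST tag, expressed in E. coli, were applied for 1 h to primer-extended double-stranded 36-bp intergenic genomic probes and negative controls on an Agilent 4 × 180k array. Bound protein was visualised with Alexa488 anti-GST antibody at 488 nm. Binding intensity is the highest Masliner-normalised natural-log median intensity across replicate spots of either probe orientation.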
row,Sequence,gcPBM binding intensity (ln)
1,TCTTTGGTAATATATATGTATAAATATAAATATATA [CACACA_negctrl_site1566],8.16 ± 0.33
2,ATATATATATATGTTAGTACATAACAAGTGTGCATA [XGTACX_site1527],9.97 ± 0.22
3,TTTTTTGCTAAGTGTACACAAATGTTTATTAATTTA [CACACA_site5859],8.81 ± 0.35
4,GATAAAATGAGACCAGTGCATTATTAGTTGTACACC,8.945 ± 0.078
5,TATACATATTTATACACACACACATATATTTATATA [CACACA_site6727],8.6 ± 0.49
6,TGTGCTTATCCTAACACACACAACATATAAGAAAAA [CACACA_site3319],8.63 ± 0.5
7,AAAAAATAAAAAATATGTACACATTCAAAATTTTAC [XGTACX_site8479],8.52 ± 0.35
8,ATATATATATATATATGTACATATTACATTACTTAT [XGTACX_site749],10.1 ± 0.27
9,AAAAAGAAAAAAAACACACACAAATATAAATAAATA [CACACA_site1183],8.6 ± 0.55
10,CAAATACACCAACACACACACACAAAAAAAAAAAAA [CACACA_site514],8.18 ± 0.53
11,TAAGTACGACTTGACACACATACACATATATATATA [CACACA_site1286],9.94 ± 0.22
12,ATTACCAACAGATCTTGTACATATTAAAGCATCTTA [XGTACX_site2361],8.46 ± 0.35
13,ATATACAAAGAAGCAGTGCATATTTTCTTATTTATG [GTGCAC_site9567],8.48 ± 0.33
14,TGAAAGAATAGAATGAGTACTAATTTAAATTACACT [XGTACX_site1120],8.47 ± 0.25
15,TTCTTTATATATTTTTGTACATATTTATTTTTAGAG [XGTACX_site6757],8.86 ± 0.33
16,TTGATTTCATTTTAAGTGCATAACTAATATTATATA [GTGCAC_site9713],8.54 ± 0.2
17,TAAAAAATAAAATACACACACATATATATATATATA [CACACA_site1323],10.2 ± 0.64
18,AAAAAAATTAAAGATTGTACTTGATTTTTCATTTTA [XGTACX_site6685],8.15 ± 0.37
19,TATATTCTTTTTTTAACACACAAAAAAAATAAAATA [CACACA_site1898],8.24 ± 0.47
20,GAGGGAAAAAATAATCGTACAAAGAAAAAAAAAAAT [XGTACX_site7361],8.64 ± 0.64
21,TTTTTTTCATAAATTAGGTAATGTCGCAGGGGGACA [TGCATGCA_negctrl_site556],9.54 ± 0.14
22,AAAGAATTGTATAAAAGTACATATTTGTTTGTTTTA [XGTACX_site7380],8.18 ± 0.52
23,AAAGAAAAAGAAAAAGAAAAAATAAAATAAAATAAA [CACACA_negctrl_site872],8.48 ± 0.45

row,Sequence,gcPBM binding intensity (ln)
1,CTTTAATATATTTAAGTGCAAAACTAATATGTAAAG,8.69 ± 0.31
2,TATATATTATATATATGTACTTATTCATATATATAA [XGTACX_site3860],8.31 ± 0.22
3,TATTTAAAAACAAAAAGTACTAATATATATTTATAC [XGTACX_site1422],8.49 ± 0.52
4,AGTAGTATGGAGAAAAGTACATAGTATCTGATAACC [XGTACX_site2040],8.86 ± 0.38
5,GACTGAACAACATAATGTACATTTATAAGTATATAT [XGTACX_site3813],8.74 ± 0.41
6,TTTTCTATATAGTGTTGTACATTATTGTGTAAAAAT [XGTACX_site3223],8.61 ± 0.37
7,ATAAAATTGGAGCAAACACACAAGGTTGAAATTAAC [CACACA_site506],8.91 ± 0.55
8,ATATTTTATACTTGCACACAAAATATATTAAAATGG [CACACA_site5139],8.47 ± 0.4
9,TTATGTTGTAAATGCACACATACAAATACATATACA [CACACA_site1368],8.61 ± 0.2
10,TACAATATAAAATACACACGCACACCGAAAAAAAAA [CACACA_site5865],8.53 ± 0.4
11,AAGAAAAAAAAGATAATAATAATAATAATAAAATGA [TGCATGCA_negctrl_site398],8.53 ± 0.32
12,ATTTATTAAAAGAAATGTACAGAAAATGTTTGGAAT [XGTACX_site7187],8.86 ± 0.39
13,ATTTAATATCACAATATATTTTTTACCCTTATCAGC [CACACA_negctrl_site491],8.47 ± 0.47
14,TATATGGTATGTATTACACACATATCACATATATAT [CACACA_site3045],8.51 ± 0.41
15,GGAATGGTACATGATACACACACGCACATATAAATA [CACACA_site7581],8.76 ± 0.47
16,TGGTAAATTGAGAATCGTACATTAAAAAACATAAAA [XGTACX_site3253],8.69 ± 0.35
17,TTAATAATAAAAAGGAGTACACTAATATACTATAAA [XGTACX_site2346],8.59 ± 0.099
18,TTAAGAAACAAAGAAAGTACACAACATAATATAGAA [XGTACX_site477],8.98 ± 0.43
19,AATAAAATCATCTATACACACAAAAAAAATAAGAAA [CACACA_site2101],8.66 ± 0.48
20,ATATAATATATATATAAACACACAAAAAAAATTATA [CACACA_site8434],8.74 ± 0.48
21,AATAACCACGGACACACACACATATATATATATATA [CACACA_site5873],10.2 ± 0.46
22,TTTAATTTTTTTTATAGTACATAAAAAATAAAAAAA [XGTACX_site5631],8.27 ± 0.33
23,TTTATTTGTGCATATACACACTTAAATATGTTTATT [CACACA_site7772],8.65 ± 0.2

row,Sequence,gcPBM binding intensity (ln)
1,TACAACCTTATAATTAGTACTTAGTTATGCTGTAAA [XGTACX_site6052],8.39 ± 0.44
2,CCGATATAATGGAAAACACACAAAAGATATTTATAT [CACACA_site7293],8.49 ± 0.67
3,TTTGTTATGGTTTTCTCACACATATATATATATATA [CACACA_site4617],10.4 ± 0.36
4,ACATAAAATTGGAGCAAACACACAAGGTTGAAATTA [CACACA_site505],8.71 ± 0.3
5,ATTATAATACTTTGTATGCACTAATCAATTATTAAA,8.36 ± 0.23
6,CCTCATAAGTTCTTATGTACGTATTGTTCACCTTTA [XGTACX_site6640],8.77 ± 0.41
7,CTGTAAAAAATATAAACACACATAGAAATATATAAA [CACACA_site340],8.79 ± 0.38
8,GAATTATAAATTATAGTGCATAAAATTATGGCATAA [GTGCAC_site9938],8.56 ± 0.085
9,TCAAAACATTATTCCATACACACCATACTTTTTAAT [CACACA_site2770],8.88 ± 0.5
10,TTGAATTATAAGAATAAACACACAAGCTTAAAAAAA [CACACA_site8318],8.46 ± 0.47
11,TATTTAAATTTGTATAATGGACGAATTATATAGAAA [GTGCAC_negctrl_site650],8.53 ± 0.41
12,CCCACAGACGGACACACACACATATATATATATATA [CACACA_site4351],10.1 ± 0.36
13,TTATTGCATTGTTTTTATAAAAAAAAAAAAAAAATT [XGTACX_negctrl_site104],8.1 ± 0.44
14,TATTTATTGTGATACTTATATTACTTAATGATTAAA [CACACA_negctrl_site676],8.31 ± 0.34
15,TAATTATGCAGACACACACACACACCCAACTAAAAA [CACACA_site2569],8.76 ± 0.57
16,CTATTTCATGGACACACACACACAAACAAACATATA [CACACA_site4696],8.85 ± 0.49
17,ATATATTATATAAAGTGTACAAAAAAAATATATAAA [XGTACX_site8065],8.91 ± 0.41
18,ATTAATAAGAAATATACACACATGGATAAATACATA [CACACA_site1872],8.64 ± 0.46
19,TTTCTTGCTACATGAAGTACACTTTCTATGACTCGT [XGTACX_site5583],8.67 ± 0.33
20,TATGATATAATTATGTGTACACAATTTTTTTTTTTT [XGTACX_site1084],8.62 ± 0.092
21,ATATATATTTTATTCACACATAAGATTATAAAACAT [CACACA_site5369],8.38 ± 0.38
22,TGTGTTCAGTATTGCACACACACAACAAAATAAAAA [CACACA_site8017],8.62 ± 0.23
23,AATTTTAAGAGCTATACATGCACTTCATAAAAAGTG [TGCATGCA_site180],8.62 ± 0.27

row,Sequence,gcPBM binding intensity (ln)
1,ATAATAAAAAAAAATGCACACATATATATATATATA [CACACA_site8766],10.3 ± 0.34
2,TAACAATTAATAAAAGGTACACTTGAATATGCACCA [XGTACX_site2717],8.73 ± 0.3
3,AATATATATATATATACACACACACCGATATATATA [CACACA_site8158],8.79 ± 0.33
4,TTAATATTTAGACATGCATGCTAATTACTATATATA [TGCATGCA_site27],9.3 ± 0.41
5,AAAAGATTTATACATACACACATATTATATTCACAT [CACACA_site3713],8.58 ± 0.47
6,ATAGAACTATATTGCACACATAATATATATATATAT [CACACA_site3189],10.04 ± 0.078
7,GTAAAAAATATGACAAGTACAAGAAAAGAAAAAAGT [XGTACX_site7906],9.23 ± 0.6
8,TTATAAATATAAAAATGTACAGAAAAAAAAAATAAA [XGTACX_site863],8.78 ± 0.43
9,ATATATATAATATGCGGTACACATTAATTAAATCAT [XGTACX_site5702],8.79 ± 0.39
10,TTATTTCTCTTTTCAGTGCATTTTATAACAAAAAAA [GTGCAC_site9930],8.69 ± 0.28
11,TTATTTTATAATAAAAGTACACAAAAAAAAAAAAAA [XGTACX_site7668],8.37 ± 0.55
12,TTTTCTTGGTTCAGTGTGCACTTATATATATATATA,10.2 ± 0.13
13,TAATATAAAGAAAAGGAACACACAAATATATATATA [CACACA_site8049],9.7 ± 0.15
14,TTATAATATATATACAGTACATATATAAAATAATAT [XGTACX_site5917],8.43 ± 0.42
15,ATGGACATCTATTGTTGTACACATTTTCCCATAACA [XGTACX_site5429],8.56 ± 0.26
16,GTAGAGCATAATAAAACACACACATACATACATATA [CACACA_site8217],8.7 ± 0.55
17,GAATATAAAATATATATATATATATATATATATATA [GTGCAC_negctrl_site425],9.96 ± 0.43
18,TTTCAAAAATGAGTTACACACACACGGATATAAATA [CACACA_site7116],8.88 ± 0.56
19,AATATTTTATTTTGGGTGCAAAAGAATATTATTTCA,8.34 ± 0.071
20,AATATAAATATTAAAACACACATAAAAAGATTATTA [CACACA_site1764],8.4 ± 0.34
21,GTGTGAAACATAAACACACACAAAAAGAAAAAATAG [CACACA_site1227],8.77 ± 0.48
